# PubChem BioAssay AID504332 (National Center for Advancing Translational Sciences (NCATS), 2011)
# Among all 350,000 compounds or so, about 31,000 (8.9%) were called active. Inconclusive means that the source gave no clear call. Such entries were picked first, then a sample of the others. Calls follow the shape of the dose curve; as a rule, active = well fitted inhibition curve with a large enough effect; inconclusive = small, poorly fitted or top-dose-only effect; inactive = no such curve, though single readings can be large or run the other way. A potency beside an inconclusive call is a rough fit, not a confirmed value.
# Molecular target: Histone-lysine N-methyltransferase EHMT2 (Homo sapiens) (UniProt Q96KQ7)
# Assay: qHTS Assay for Inhibitors of Histone Lysine Methyltransferase G9a; also: nearly all actives have a fitted effect of over 75% in size
# Settings: G9a H3K9 monomethylation, AlphaScreen, 2 h; activity, negative = inhibition: at 59 µM (top of the series) unless noted
# In short: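 Quantitative HTS format: methyltransferase activity on a biotin-tagged H3K9 peptide is measured by AlphaScreen, using a rabbit anti-monomethyl-H3K9 antibody with streptavidin donor and anti-IgG acceptor beads. Final levels are 20 nM enzyme, 500 nM peptide, 20 uM SAM; 2 h RT.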
# % is scaled to controls: 0 for no effect and ±100 for the full control effect; potency is read from the fitted curve at half-maximal effect; tags tell the direction and shape of the fitted curve.
# Chain of UniProt Q96KQ7 (Q96KQ7 whole entry, looked up): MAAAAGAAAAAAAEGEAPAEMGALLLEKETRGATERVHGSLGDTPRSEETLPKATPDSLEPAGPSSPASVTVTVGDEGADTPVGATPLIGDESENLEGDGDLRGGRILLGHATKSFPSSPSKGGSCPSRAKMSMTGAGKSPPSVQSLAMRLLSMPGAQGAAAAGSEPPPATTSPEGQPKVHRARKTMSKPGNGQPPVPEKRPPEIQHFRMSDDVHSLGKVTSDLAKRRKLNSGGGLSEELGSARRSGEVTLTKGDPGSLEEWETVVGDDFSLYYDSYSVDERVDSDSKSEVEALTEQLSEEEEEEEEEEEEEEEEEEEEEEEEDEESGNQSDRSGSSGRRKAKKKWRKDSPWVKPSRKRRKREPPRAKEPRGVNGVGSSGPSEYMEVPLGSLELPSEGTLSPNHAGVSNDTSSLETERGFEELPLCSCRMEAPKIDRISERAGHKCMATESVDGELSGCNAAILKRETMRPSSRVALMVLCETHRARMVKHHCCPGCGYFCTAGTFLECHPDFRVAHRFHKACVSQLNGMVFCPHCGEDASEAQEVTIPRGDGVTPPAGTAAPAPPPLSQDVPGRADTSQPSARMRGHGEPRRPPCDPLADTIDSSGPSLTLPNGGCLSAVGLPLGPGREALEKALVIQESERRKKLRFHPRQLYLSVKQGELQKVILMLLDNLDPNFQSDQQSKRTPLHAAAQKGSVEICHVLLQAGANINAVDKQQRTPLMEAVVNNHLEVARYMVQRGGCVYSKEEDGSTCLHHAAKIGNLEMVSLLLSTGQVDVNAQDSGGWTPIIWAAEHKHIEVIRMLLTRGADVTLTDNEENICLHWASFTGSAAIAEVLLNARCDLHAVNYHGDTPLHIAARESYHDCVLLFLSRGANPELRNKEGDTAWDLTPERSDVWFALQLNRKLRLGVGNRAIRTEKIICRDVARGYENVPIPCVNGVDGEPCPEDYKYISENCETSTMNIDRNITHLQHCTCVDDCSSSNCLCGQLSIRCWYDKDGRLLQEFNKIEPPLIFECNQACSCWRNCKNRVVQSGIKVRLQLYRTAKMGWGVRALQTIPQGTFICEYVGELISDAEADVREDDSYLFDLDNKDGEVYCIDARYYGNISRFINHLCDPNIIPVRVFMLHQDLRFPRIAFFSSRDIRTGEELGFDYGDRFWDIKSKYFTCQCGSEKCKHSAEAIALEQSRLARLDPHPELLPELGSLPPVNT
Structure (SMILES),Potency,"activity, negative = inhibition"
CC(=O)c1ccc(NC(=O)CSC2=NS(=O)(=O)c3cc(Cl)ccc3N2)cc1,"inconclusive: 7.94 µM [inhibitor, partial curve, poor fit]",
C=CCOc1ccc(Cl)cc1CNCCCN1CCOCC1,"inconclusive: 89.1 µM [inhibitor, single point]",
O=C1C(=O)N(CCCN2CCOCC2)C(c2ccc(Cl)cc2)/C1=C(\O)c1ccc2c(c1)OCCO2 (stereo not given),active: 39.8 µM,
O=C(CCCN1CCc2[nH]c3ccc(F)cc3c2C1)c1ccc(F)cc1,active: 50.1 µM,
Cc1nc(-c2ccccc2)c(-c2ccccc2)[nH]1,inactive,
CCOC(=O)c1csc(NC(=O)CSc2nnnn2-c2ccc(OC)cc2)n1,inactive,
COc1cc(CNc2ccc3[nH]c(=O)[nH]c3c2)ccc1OCC(=O)NC(C)(C)C,,inconclusive: -69.1% [inhibitor]
Cn1cccc1Cc1nnc(SCC(=O)NCCc2ccccc2)n1-c1ccc(F)cc1,active: 56.2 µM,
CCOc1ccc(OCCCCn2ccnc2)cc1,"inconclusive: 31.6 µM [inhibitor, single point]",
Cc1ccc(F)cc1NC(=O)COC(=O)C1CCN(c2ccc(C(F)(F)F)cn2)CC1,"inconclusive: 5.01 µM [inhibitor, partial curve, poor fit]",
COc1ccc(/C(O)=C2\C(=O)C(=O)N(CCN(C)C)C2c2cc(OC)c(OC)c(OC)c2)c(C)c1 (stereo not given),,inconclusive: -63.6% [inhibitor]
COC(=O)c1ccc(NC(=O)CCN2C(=O)C3CC=CCC3C2=O)cc1 (stereo not given),"inconclusive: 28.2 µM [inhibitor, single point]",
Nc1ccccc1Sc1c[nH]c2ccccc12,active: 44.7 µM,
CCOC(=O)c1c(NC(=O)CCl)sc(C(=O)N(CC)CC)c1C,"inconclusive: 14.1 µM [inhibitor, partial curve, poor fit]",
O=C(NCc1ccco1)c1cnn2c(C(F)(F)F)cc(-c3ccco3)nc12,"inconclusive: 89.1 µM [inhibitor, single point]",
Oc1ccccc1/C=N/Nc1ccccc1,active: 8.91 µM,
Cc1sc(N/N=C/c2ccco2)nc1-c1ccccc1,"inconclusive: 31.6 µM [inhibitor, single point]",
O=C(COC(=O)c1cn(-c2ccccc2)nc1-c1ccccc1)c1cccc([N+](=O)[O-])c1,"inconclusive: 2.24 µM [inhibitor, partial curve, poor fit]",
Cc1cccc(NC(=O)C(=O)NCC(c2cccnc2)N2CCc3ccccc32)c1C (stereo not given),"inconclusive: 25.1 µM [inhibitor, partial curve, poor fit]",
Cn1c(CC(=O)Nc2ccc(Cl)c(Cl)c2)n[nH]c1=S,active: 14.1 µM,
CCOc1ccc(-c2nonc2NC(=O)c2oc3ccc(Cl)cc3c2C)cc1,inactive,
CC(C)CN(C(=O)COC(=O)c1cc2c(s1)CCC2)C1CCS(=O)(=O)C1 (stereo not given),inactive,
COc1cccc(CN(C)C(=O)c2[nH]c(C)c(C(C)=O)c2C)c1OC,"inconclusive: 3.16 µM [inhibitor, partial curve, poor fit]",
COc1ccc(C2=CC(c3cc(OC)c(OC)c(OC)c3)NC(=S)N2)cc1 (stereo not given),active: 6.31 µM,

Structure (SMILES),Potency,"activity, negative = inhibition"
O=C(CSc1nc2ccccc2c(=O)n1Cc1ccco1)NCc1ccco1,"inconclusive: 25.1 µM [inhibitor, single point]",
CN1CCN(NC(=O)c2ccc(Br)c(S(=O)(=O)N3CCOCC3)c2)CC1,"inconclusive: 79.4 µM [inhibitor, single point]",
O=C(CSc1ccccn1)c1ccc(F)cc1,"inconclusive: 11.2 µM [inhibitor, partial curve, poor fit]",
N#C/C(=C\c1cc(Cl)c(OCc2ccc(Cl)cc2)c(Cl)c1)C(N)=O,,inactive: 28.1% [at 12.7 µM]
O=C1CC(N2CCN(C(c3ccccc3)c3ccccc3)CC2)C(=O)N1Cc1ccc(N2CCCC2=O)cc1 (stereo not given),inactive,
O=C1CCCC1C(=O)Nc1ccc2ccccc2c1 (stereo not given),"inconclusive: 63.1 µM [inhibitor, single point]",
CCC1(c2ccccc2)NC(=O)N(CC(=O)N(C)CC(=O)Nc2cccc(F)c2)C1=O (stereo not given),"inconclusive: 89.1 µM [inhibitor, single point]",
CON1C(=O)C(=O)N(OC)C2CCCCCC21 (stereo not given),inactive,
O=C(CSc1nnc(CNC(=O)c2ccccc2F)o1)NCC1CCCO1 (stereo not given),"inconclusive: 79.4 µM [inhibitor, single point]",
CC1=C(C(=O)Nc2ccc(C)cc2C)C(CC(C)C)n2nc(SCc3ccccc3C)nc2N1 (stereo not given),inactive,
COCCCNCC(=O)Nc1ccc(OC(F)(F)F)cc1,active: 8.91 µM,
CCOC(=O)c1sc(NC(=O)CCSC)nc1C,"inconclusive: 39.8 µM [inhibitor, single point]",
CCS(=O)(=O)N1Cc2ccccc2CC1C(=O)Nc1ccc(NC(C)=O)cc1 (stereo not given),"inconclusive: 28.2 µM [inhibitor, single point]",
Cc1noc(C)c1S(=O)(=O)Nc1ccc(C(=O)N2CCc3ccccc3C2)cc1,"inconclusive: 56.2 µM [inhibitor, partial curve, poor fit]",
CCOC(=O)c1c(CC(C)C)csc1NC(C)=O,,inactive: 14.8% [at 12.7 µM]
COc1ccc(OC)c(CN2CCC(C(=O)N3CCN(c4ccccc4F)CC3)CC2)c1,active: 10 µM,
CC1OC(OC2C(CO)OC(OC3C(CO)OC(O)C(O)C3O)C(O)C2O)C(O)C(O)C1NC1C=C(CO)C(O)C(O)C1O (stereo not given),,inactive: -20.2% [at 2.33 µM]
Cn1c(NCCCN2CCOCC2)nc2c1c(=O)n(Cc1ccc(Cl)cc1)c(=O)n2C,"inconclusive: 44.7 µM [inhibitor, partial curve, poor fit]",
CCOC(=O)N1CCN(c2cc(=O)n(-c3cccc(Br)c3)c(=O)[nH]2)CC1,"inconclusive: 35.5 µM [inhibitor, single point]",
O=C(O)c1cccc2c1C(=O)c1ccc(-c3ccc(F)cc3F)cc1S2(=O)=O,,inactive: 13.9% [at 2.33 µM]
Cc1ccc(NC(=O)CSc2ncccc2C(=O)Oc2ccccc2Cl)cc1Cl,"inconclusive: 39.8 µM [inhibitor, single point]",
Cc1ccccc1C(=O)NC(=S)NCc1cccnc1,"inconclusive: 79.4 µM [inhibitor, partial curve, poor fit]",
CC(=O)NC(Nc1c(C)n(C)n(-c2ccccc2)c1=O)C(Cl)(Cl)Cl (stereo not given),"inconclusive: 44.7 µM [inhibitor, partial curve]",
COc1ccc(-n2cc(-c3ccc(Br)cc3)[nH]c2=S)cc1,inactive,

Structure (SMILES),Potency,"activity, negative = inhibition"
COc1ccc(-n2c(SCC(=O)O)nc3sc4c(c3c2=O)CCCC4)cc1,"inconclusive: 70.8 µM [inhibitor, partial curve]",
Cc1ccc(-c2cc(-c3n[nH]c(=S)n3C)c3ccccc3n2)cc1,active: 2 µM,
Cc1cc(C)nc(Nc2ncn[nH]2)n1,inactive,
COc1ccc(CC(NC(C)=O)C(=O)NC2CCN(c3c4c(nc5ncnn35)CCC4)CC2)cc1OC (stereo not given),,inactive: 4.73% [at 12.7 µM]
S=C(c1ccccc1)N(c1ccccc1)c1ccccc1,"inconclusive: 15.8 µM [inhibitor, full curve]",
Cc1ccc(-c2cc(C(=O)N3CCN(c4ncccn4)CC3)c3ccccc3n2)cc1,active: 44.7 µM,
NC(=O)c1ccsc1NC(=O)COC(=O)Cc1c[nH]c2ccccc12,"inconclusive: 79.4 µM [inhibitor, partial curve, poor fit]",
Cc1ccc(S(=O)(=O)NC(C)(C)CN2CCNCC2)cc1,"inconclusive: 89.1 µM [inhibitor, single point]",
COC(=O)CN(C)C1CC(=O)N(c2ccc(Cl)cc2)C1=O (stereo not given),"inconclusive: 1.58 µM [inhibitor, partial curve, poor fit]",
CCc1ccc(NC(=O)Cn2c(=O)n(CCCC(=O)NCc3ccccc3OC)c(=O)c3ccccc32)cc1,inactive,
COC(=O)COc1cccc2c(=O)n(CC(=O)NCCc3ccc(OC)c(OC)c3)ccc12,"inconclusive: 100 µM [inhibitor, single point]",
Cc1ccccc1-c1nc2c(c(SCc3cccc(Cl)c3)n1)Cc1c(CO)cnc(C)c1O2,inactive,
CN(C)CC#CCCCCCCC#CCN(C)C,"inconclusive: 89.1 µM [inhibitor, single point]",
O=C1c2oc3ccccc3c(=O)c2C(c2ccccn2)N1Cc1ccccc1 (stereo not given),"inconclusive: 15.8 µM [inhibitor, single point]",
COc1ccccc1N1CCN(C2=Nc3cccc4cccc2c34)CC1,"inconclusive: 4.47 µM [inhibitor, partial curve, poor fit]",
C=CCNC(=S)/N=c1/ccccn1C,active: 35.5 µM,
Cc1nn(Cc2ccc(C(=O)Nc3ccc(C(=O)OC(C)C)cc3)o2)c(C)c1Cl,"inconclusive: 5.62 µM [inhibitor, partial curve, poor fit]",
COc1ccccc1NC(=O)Cc1noc(CSc2cccc[n+]2[O-])n1,"inconclusive: 7.08 µM [inhibitor, single point]",
Cc1cc(C)nc(SCC(=O)Nc2cc(C)on2)n1,inactive,
c1cncc(-c2cc(-n3ccnc3)ncn2)c1,,inactive: -38.5% [at 0.501 µM]
O=C(CCCc1ccccc1)NCCS(=O)(=O)N1CCN(c2ccc(F)cc2)CC1,,inconclusive: -81.5% [inhibitor] [at 2.33 µM]
COCCNCCCOc1ccc(Cl)cc1Br,active: 11.2 µM,
